Among all 44,000 compounds or so, about 340 (0.77%) were called active. Another 5% or so got no clear call; they are omitted. Calls follow the shape of the dose curve; as a rule, active = well fitted inhibition curve with a large enough effect; inconclusive = small, poorly fitted or top-dose-only effect; inactive = flat fitted curve, though single readings scatter. This is one part of the list.
Experiment: Acumen qHTS Assay for Inhibitors of the mTORC1 Signaling Pathway in MEF (Tsc2-/-, p53-/-) Cells: Sytravon;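 also: plate controls were DMSO for no effect and rapamycin for full effect; nearly all actives have a fitted effect of over 50% in size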
Conditions: phospho-rpS6 immunofluorescence/PI, 24 h; series mostly up to 38.3 µM; activity change, negative = inhibition: at the top concentration
Procedure, shortened: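 Tsc2-/-, p53-/- mouse embryonic fibroblasts (empty-vector line) exposed to compound 24 hrs at 37 C, fixed, immunostained for phospho-rpS6 and counterstained with propidium iodide. Acumen laser scanning gives % positive cells from Alexa 488/PI ratio, thresholded using 7.5 nM rapamycin; PI count gives viability.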

Activity change, negative = inhibition, inactive:
O=C(CSc1nnc(-c2ccncc2)n1-c1ccccc1)Nc1ccc(Cl)c(Cl)c1 -9.88%
Clc1ccc(CCNc2nc3ccccc3c3nc(-c4ccccc4)nn23)cc1 0.12%
CCN(C(=O)CSc1nnc(-c2cc(OC)c(OC)c(OC)c2)o1)c1ccccc1 3.44%
Cc1ccc(C(=O)N(Cc2ccco2)Cc2ccco2)cc1 -5.26%
CCOc1ccc(NC(=O)Cn2cc(C(=O)c3cccs3)c3ccccc32)cc1 3.37%
CCOc1cccc(CC(=O)NCc2ccc3c(c2)CCN3C(=O)c2ccc(F)cc2)c1OCC -3.26%
O=C(CSc1nc2ncccc2[nH]1)Nc1cc(F)ccc1F 0.61%
O=C(CCn1c(=O)c2cccn2c2cccnc21)NCc1ccccc1Cl -6.19%
O=C(NCC(c1cccnc1)N1CCN(c2ccccc2F)CC1)C(=O)Nc1ccc(F)cc1F (stereo unspecified) 5.13%
COc1cccc(N2CCN(C(=O)C3CCCN(S(=O)(=O)c4cccc5nsnc45)C3)CC2)c1 (stereo unspecified) -0.421%
Cc1ccc(CNC(=O)CCc2c(C)nn(-c3ccc(N4CCOCC4)nn3)c2C)cc1 4.24%
CCOc1ccc(C(=O)c2cn(CC(=O)Nc3ccc4c(c3)OCO4)c3ccc(OC)cc3c2=O)cc1 0.891%
CCOc1ccc2c(c1)c(=O)c(C(=O)c1ccc(CC)cc1)cn2CC(=O)Nc1ccccc1OC 1.67%
COc1ccc(OC)c(NC(=O)Cn2c(=O)c3cccn3c3ccccc32)c1 9.3%
CCn1c(=O)n(-c2ccc3c(c2)OCO3)c2nc(-c3ccc(C(C)C)cc3)nc(C(N)=O)c21 1.48%
O=C(Nc1cccc(Cl)c1)C1CCCN(c2nn3cc(-c4ccc(F)cc4)nc3s2)C1 (stereo unspecified) 1.85%
Cc1ccc(Cl)cc1NC(=O)CSc1nc2ccccc2c2nc(-c3ccccc3)nn12 2.54%
CCOC(=O)C1CCN(C(=O)c2nn(-c3ccc(OC)c(Cl)c3)c(=O)c3c2c2ccccc2n3C)CC1 -4.28%
CCOc1ccc(C(=O)Nc2cc(-c3nc4cc(OC)ccc4o3)ccc2C)cc1[N+](=O)[O-] -2.63%
Cc1ccc(S(=O)(=O)c2cn(CC(=O)Nc3cccc(Cl)c3)c3ccccc3c2=O)cc1 -13.5%
O=C(Cn1cc(C(=O)C(F)(F)F)c2ccccc21)N1CCCCCC1 1.31%
CC1(C)N=C(SCc2ccc(F)cc2)c2ccccc2N1 -8.67%
O=C(COc1ccc2ccccc2c1)NC1CC(=O)N(c2ccc(F)cc2)C1 (stereo unspecified) -2.43%
CCOc1ccccc1NC1(c2ccccc2)C(=O)c2ccccc2C1=O 1.83%
Cc1ccccc1CN1c2ccccc2-c2nc(SCC(=O)c3ccccc3)ncc2S1(=O)=O -4.54%
CCNC(=O)c1ccc2c(c1)nc1n2CCCCC1 1.53%
Cc1ccccc1OCc1nc2c3cnn(-c4cccc(F)c4)c3ncn2n1 -3.9%
Cc1c(CNC2CCCCC2)c(C(=O)O)c(C)n1Cc1ccccc1F 0.859%
CCNC(=O)c1c(NC(=O)Cc2coc3ccc(CC)cc23)sc2c1CCCC2 -4.46%
CC(=O)N1CCCc2cc(S(=O)(=O)N3CCN(c4ccccc4F)CC3)ccc21 -9.13%
COc1cccc(C2C(C(=O)Nc3ccc(Cl)cc3)=C(C)Nc3nc4ccccc4n32)c1OC (stereo unspecified) 1.92%
Cc1oc2ncn(CC(C)C)c(=O)c2c1C(=O)N(CCN(C)C)Cc1ccccc1 0%
CCCCNC(=O)c1ccc2c(c1)N(CC)C(=O)c1ccccc1S2 0%
Cc1ccc2c(c1)N(C(=O)N1CCC(C(=O)NCc3ccccc3C)CC1)CC(C)O2 (stereo unspecified) -5.52%
CCCCNC(=O)c1c(-c2ccccc2)c(-c2ccccc2)nn(C)c1=O 1.93%
CC(=O)N1c2ccc(S(=O)(=O)NCc3ccccc3Cl)cc2CC1C (stereo unspecified) 0.0113%
CCCc1nnc(NC(=O)c2cc(=O)c3ccccc3o2)s1 2.78%
COc1ccc(N2CCN(C(=O)C3CCCN(C(=O)c4cc5sccc5n4C)C3)CC2)cc1 (stereo unspecified) 2.86%
CCOC(=O)c1c(C)n(-c2ccccc2)c2ccc(OC(=O)COc3ccccc3)cc12 -2.66%
CCCCNC(=O)CN1C(=O)c2cccnc2Sc2ccccc21 -5.95%
CC1=C(C(=O)Nc2cccnc2)C(c2cccc(F)c2)n2nc(SCc3ccccc3F)nc2N1 (stereo unspecified) 5.81%
COc1ccc(C)cc1NC(=O)c1cc(S(=O)(=O)N2CCOCC2)cn1C 12.9%
O=C(CSc1nc(=O)[nH]c2c1CCCC2)NCc1ccccc1Cl -1.67%
O=C(Nc1cccc(Cl)c1Cl)c1ccc2c(c1)N(Cc1cccc(Cl)c1)C(=O)c1ccccc1S2=O (stereo unspecified) 0.336%
COc1cc2[nH]c(=O)n(Cc3ccc(C(=O)N4CCN(c5ccc(Cl)cc5)CC4)cc3)c(=O)c2cc1OC 3.67%
Cc1ccc(NC(=O)c2sc3ncn(Cc4cccc(F)c4)c(=O)c3c2C)c(Br)c1 -0.634%
Cc1ccc(C)c(NC(=O)Cn2nc(C)c3nn(-c4ccc(Cl)cc4)c(C)c3c2=O)c1 8.26%
Cc1ccc(N(Cc2cccs2)C(=O)C(C)Oc2ccc(Cl)c(C)c2)cc1 (stereo unspecified) -14%
COc1ccc(N2CCN(c3ccc(-c4nc(-c5ccccc5)no4)cc3[N+](=O)[O-])CC2)cc1 2.47%
COc1ccc(CNC(=O)CCS(=O)(=O)c2cc(Br)cc3c2N(C(C)=O)C(C)C3)cc1 (stereo unspecified) -6.62%
CCOc1ccc(CCNC(=O)c2cc3c(=O)n(CC)c4ccccc4c3s2)cc1OCC -13.4%
CCc1cccc(NC(=O)CSc2nncn3c2cc2sccc23)c1 -0.033%
CCN(Cc1ccccc1)C(=O)c1cc(-c2ccccc2)n[nH]1 -7.07%
Cc1ccc(Cl)cc1N1CCN(C(=O)CN2C(=O)COc3ccc(S(=O)(=O)N4CCCCCC4)cc32)CC1 -13.7%
COc1ccc(S(=O)(=O)NCCSc2nnnn2-c2ccccc2)cc1OC -4.53%
Cc1c(C)n(Cc2ccccc2)c2ccc(C(=O)N3CCN(c4ccc(F)cc4)CC3)cc12 4.43%
CC(C)CCNC(=O)c1ccc2c(c1)NC(=O)C(C(C)C)N2 (stereo unspecified) -0.538%
Cc1oc2ccc(O)c(CN3CCOCC3)c2c1C(=O)Nc1cccc(C(F)(F)F)c1 -12.7%
Cn1cnc(S(=O)(=O)N2CCCC(C(=O)NCc3ccc(Cl)cc3)C2)c1 (stereo unspecified) 0%
CCN(CC)S(=O)(=O)c1ccc2c(c1)N(CC(=O)N1CCN(c3ccc(OC)cc3)CC1)C(=O)CO2 -10.8%
Cc1ccccc1Nc1c(-c2cccc(Cl)c2)nc2ncccn12 -1.45%
Cc1ccc(-c2onc(C)c2C)cc1S(=O)(=O)N1CCOc2ccc(Cl)cc21 0%
COc1ccc(-n2c(SCC(N)=O)nc3c(oc4ccccc43)c2=O)cc1 -0.0565%
CC(=O)N1CCc2c(sc3c2c(=O)n(Cc2ccccc2)c(=O)n3Cc2ccccc2F)C1 -10.6%
O=C(Cc1cccs1)Nc1c(C(=O)Nc2ccc(F)cc2)oc2ccccc12 -12.6%
CC(C)CN1CCc2nc(Nc3ccc(F)cc3F)ncc2C1 0%
COc1cc(/C=C(\C#N)c2nc3ccccc3[nH]2)ccc1OCc1ccccc1F 3.18%
COc1ccc(CCC(=O)NCc2ccc3c(c2)CCN3C(=O)c2ccccc2)cc1 -5.57%
CCC(Sc1nc(-c2ccc(F)cc2)nc2c1Cc1c(CO)cnc(C)c1O2)C(=O)Nc1ccc(F)cc1 (stereo unspecified) 0.701%
COc1c(Cl)cc(C(=O)N(Cc2ccccc2F)C2CCS(=O)(=O)C2)cc1Cl (stereo unspecified) 0.309%
CCS(=O)(=O)N1CCc2cc(C(=O)N3CCN(c4ccccc4OC)CC3)ccc21 2.56%
CC(C)(C)OC(=O)N1CCc2nc(N3CCN(c4ncccn4)CC3)ncc2C1 2.97%
Cn1c(=O)c2c(nc(SCC(=O)Nc3ccc(F)cc3)n2Cc2ccccc2F)n(C)c1=O -0.115%
COc1ccc(C(CNC(=O)c2ccc(F)cc2)N2CCCC2)cc1 (stereo unspecified) -4.97%
Cc1cc(C)cc(NC(=O)N2CCC(CN3CCCCCC3)CC2)c1 0.667%
CCOc1ccc2nc(NC(=O)c3nc(SCc4ccccc4C)ncc3Cl)sc2c1 1.37%
CCCSc1ncc(Cl)c(C(=O)Nc2c(C(=O)c3ccc(C)cc3)oc3ccccc23)n1 -1.64%
CCC(=O)N1c2ccc(S(=O)(=O)CCC(=O)N3CCN(c4cc(C)ccc4C)CC3)cc2CC1C (stereo unspecified) -0.484%
O=C(CSc1nc2nccnc2c(=O)n1CCc1c[nH]c2ccccc12)Nc1ccccc1 0%
COC(=O)c1c(NC(=O)/C(C#N)=C/c2ccc(OC)cc2)sc2c1CCC2 9.12%
O=C(NC1CC(=O)N(c2ccccc2)C1)C(c1ccccc1)c1ccccc1 (stereo unspecified) -0.487%
Cc1c(CCNC(=O)c2ccc(Br)o2)sc2nc(-c3ccc(Cl)cc3)nn12 -0.569%
Cc1ccc(C(=O)N2CCCCC2)cc1NC(=O)c1nsc2ccccc12 -10.4%
COc1ccc(S(=O)(=O)N2CCC(N3CCN(Cc4ccc(F)cc4)C(=O)C3=O)CC2)cc1 0.547%
O=C(Nc1ccccc1C(F)(F)F)C1CCN(S(=O)(=O)Cc2ccccc2)CC1 8.74%
CCc1ccc(C(=O)c2cn(CC(=O)Nc3cc(OC)ccc3OC)c3nc(C)ccc3c2=O)cc1 1.69%
Cc1oc2cc3oc(=O)c(CC(=O)NCc4ccccc4)c(C)c3cc2c1C 1.29%
Cc1ccc(-n2c(=O)c3sc4ccccc4c3n(C)c2=O)cc1F -12.5%
COc1cccc(NC(=O)c2oc3ccccc3c2NC(=O)c2ccc(F)c(F)c2)c1 -15.5%
Cc1ccc(C)c(NC(=O)c2ccc3c(c2)CCCN3S(C)(=O)=O)c1 -2.44%
COCCNC(=O)CCC(=O)NNc1nc2ccccc2c2nc(-c3ccccc3)nn12 1.82%
CCOc1ccc(NC(=O)CSc2ncc3c(n2)-c2ccccc2N(C)S3(=O)=O)cc1 1.04%
Clc1ccccc1-c1nc(Nc2ccccc2)nc2ccc(Br)cc12 -4.24%
Cc1ccc(NC(=O)N2CCC(n3c(C)nc4cccnc43)CC2)c(Cl)c1 0%
Cc1ccc(NC(=O)c2cc(S(=O)(=O)N3CCOCC3)c(Cl)cc2Cl)cc1 9.66%
COc1ccc(CNC(=O)Nc2cn(CC(C)C)c(=O)c3ccccc23)c(OC)c1 -21.5%

Source: PubChem BioAssay AID493208 (National Center for Advancing Translational Sciences (NCATS), 2011)
